Measured values from a compilation of properties of binary mixtures (doi:10.1007/s10953-021-01127-x).
The densities may have been worked out from excess volumes.

Test: xn = mol fraction of the nth substance listed
Conditions: 100 kPa

CCCC[n+]1ccn(C)c1C.F[B-](F)(F)F + O=C1CCCN1
mass density [kg/m3]
Conditions	293.15 K	298.15 K	303.15 K	308.15 K
x1 = 0.0698	1129.3	1125.7	1122.1	1118.8
x1 = 0.1052	–	1133.4	1130	1127
x1 = 0.1469	–	–	1138.1	1135.3
x1 = 0.1948	1151.8	1149	–	1143.5
x1 = 0.2495	1159	1156.4	–	1151.5
x1 = 0.2945	1164	1161.5	1159.1	1157
x1 = 0.3428	1168.5	1166.2	1164.1	1162
x1 = 0.3964	1172.8	1170.6	–	1166.7
x1 = 0.4419	1175.9	–	1172.1	1170
x1 = 0.5004	1179.3	1177.2	1175.6	1173.6
x1 = 0.5563	1182	1179.9	1178.4	1176.4
x1 = 0.5949	1183.6	1181.5	1180	1178.1
x1 = 0.6419	–	1183.2	1181.7	1179.8
x1 = 0.6984	1187.1	1184.9	1183.3	1181.5
x1 = 0.7521	1188.6	–	1184.8	1182.9
x1 = 0.8031	–	1187.5	1185.9	1184.1
x1 = 0.8549	1190.9	1188.6	1187	1185
x1 = 0.9021	–	1189.5	1187.8	1185.8
x1 = 0.9564	1193	1190.5	–	1186.6
